This is an account of results in the supplement of paper PMC11417369.

The list shows a part of the results.

In the assay the test system is PfSIP2 AP2 domain 1 (GST-tagged). The assay is described as follows: gcPBM binding intensity (ln(normalized median fluorescence intensity)); higher = stronger DNA binding. The gist of the method:
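An Agilent 4 × 180k array carrying primer-extended double-stranded 36-bp intergenic genomic probes and negative controls received GST-tagged P. falciparum DNA-binding domains expressed in E. coli, about 25 μg on average, for 1 h. The binding buffer contained 1× PBS, 1% milk, 0.2 mg/ml BSA, 0.5% salmon testes DNA and 0.03% Triton X-100. Binding intensity is the top Masliner-normalised natural-log median intensity across replicate spots of either probe orientation, read after Alexa488 anti-GST antibody staining and a 488 nm scan.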
On to “TTTATTTATCTGAACACATGCAGACAAATAACATAT [TGCATGCA_site929]”, for which the “gcPBM binding intensity (ln)” value is 6.91. With “ATTATATATAAACACACACACATGCATGCACATATA [CACACA_site4237]” the figure was 8.9.

On to “CATAAACTTTATAACACACACTTATAAATATAAATA [CACACA_site6646]”, for which the “gcPBM binding intensity (ln)” value amounted to 7.04. With “GTTATAAAATATGGCACACAAAATGTAAGTAAATGA [CACACA_site1458]” the figure was 7.23; with “ATATATTTTGTTATGGTGCGTAAGAAATATATTCTT [GTGCAC_site9825]”, 8.74. As for “GATCTTTAAATTTATTGTACATAAATGTATATGTTA [XGTACX_site1107]”, the “gcPBM binding intensity (ln)” value came to 7.04.

For the sequence “TATATATTATAAAATAGTACACAGAATTTAAATATA [XGTACX_site100]”, the “gcPBM binding intensity (ln)” value came to 6.95. In the case of “TATATATAGAAACACACACACATATATATATATTTT [CACACA_site2540]”, the “gcPBM binding intensity (ln)” value was 7.1. With “TTGTTGATTGTTATTTATCATTAGATGTAAAATATG [CACACA_negctrl_site927]” the figure was 6.99. The same measure for “TCTTTTAAACAGTACACACACACATATATATATATA [CACACA_site924]”: 9.59; for “AATATTTTTTTATAAACACACATATAAATAAATATA [CACACA_site7622]”: 6.99. The same measure for “ATATCTATAATAAACACACACATATACCTATAGGTA [CACACA_site7596]”: 7.02; for “GGGCATATAATATAAAGTACAGGACTATAAAAATAT [XGTACX_site4481]”: 7.24; for “TATTATATGTATTGCACACCTTCAACAACTACTTCT [CACACA_site655]”: 7.39. Turning to “ATTGTGCACTTATATGCACACATTTTAGTTTTTTTT [CACACA_site2028]”, the “gcPBM binding intensity (ln)” value amounted to 10.6. With “GAACAATATATTTGCACACAAAAAATATATATTTAT [CACACA_site3317]” the figure was 7.35. With “GGATAAAAAATATGTACACACATATAGATATCTATA [CACACA_site2693]” the figure was 7.04.

As for GTTTACATCATTCTGGTGCAAAAAAAAAAAAAAATA, the “gcPBM binding intensity (ln)” value was determined as 9.86. The same measure for “TAGATTTAAAAAAAAAAAAAATTTTTTTTTTTTTTT [TGCATGCA_negctrl_site593]”: 7.14. With “GAATACTCATTTCTTTGTACATATATATGTGTATTT [XGTACX_site6411]”, the “gcPBM binding intensity (ln)” value was 7.07. Consider “ATACAAGTATTAATTACACACTCAAAAAGAAAAAAC [CACACA_site5287]”, for which the “gcPBM binding intensity (ln)” value worked out at 6.96. With “TTCATATGGAATAAAAGTACGTATTAAAACAATTTT [XGTACX_site8742]” the figure was 6.9; with “CATATAAACAATAACACACACCTAGGTACATGGAAA [CACACA_site4615]”, 6.99; with “CTTTTTAATTTATCGACACACGCATGAATAGAAATT [CACACA_site9112]”, 6.94. The same measure for “AAAGCAAATAATAAGTGTACGGGTCAATATATGCGT [XGTACX_site1519]”: 7.08. Regarding “GTGTACAAAATATGGTAATAAAGTAGTTACATGAAT [CACACA_negctrl_site1775]”, the “gcPBM binding intensity (ln)” value turned out to be 7.23. Regarding “CTAAATTGTTAATAGAGTACATTTGTATAATATAAG [XGTACX_site594]”, the “gcPBM binding intensity (ln)” value amounted to 6.93. Take “AATAAAATATAATAATTAATATATATATATATATAA [GTGCAC_negctrl_site457]”: the “gcPBM binding intensity (ln)” value worked out at 7.48. The same measure for “TTATGTTGTAAATACACACATACATATACATACACA [CACACA_site733]”: 7.05; for “TATGTGAAATAAGGATGTACAATTTTGATTTCCCCA [XGTACX_site8389]”: 6.95. For “TTTAATGAAAGAAACACATACGTATCAAAATATATG [TGCATGCA_negctrl_site510]”, the “gcPBM binding intensity (ln)” value was 6.9. With “TACGTTGTATATTTTTGTACATATTGAATTACAAAA [XGTACX_site5906]” the figure was 6.95; with “TTTTAATAATTTATAAAAAAAAAAAAAAAATAAATA [TGCATGCA_negctrl_site419]”, 6.62. Take “AAATGAATAAATAGGTCACACACAAATATATATAAA [CACACA_site8764]”: the “gcPBM binding intensity (ln)” value was determined as 6.97.

In the case of “ATATATATATATATATGTACATATACATATGTGCAA [XGTACX_site5604]”, the “gcPBM binding intensity (ln)” value was 9.01. The same measure for “TATTTTTAAAATATAAGTAAAAAAATAATATAAACT [TGCATGCA_negctrl_site283]”: 7; for “AATAAATAAAGAAGTACACACATATATATATATATA [CACACA_site4314]”: 9.3.

“TAATTTCTTAGGTATTGTACAAATATTATATGATAT [XGTACX_site256]”: the “gcPBM binding intensity (ln)” value is 7.05. The same measure for “ATAATAAAAAAAATTAGTACATATATAAATATAAAT [XGTACX_site1937]”: 6.85; for “ATATATCTATAAAAGGCTTCCCACTTTTTTTGTCAA [TGCATGCA_negctrl_site332]”: 6.88. The same measure for “AGTACATTTTTGTGTGTGCACTAATATTATATACTT [GTGCAC_site9568]”: 10.3. The same measure for “ATTTATTTTATTTTCACACACAAAAATAAATATCCG [CACACA_site2414]”: 7.01.

On to “ATAAAAAAAAAAAAAAGTACACATATAAAAGTATTG [XGTACX_site8265]”, for which the “gcPBM binding intensity (ln)” value was 6.92. With “TAAATAATATCTATCACACACGCATAAATACAGATA [CACACA_site5449]” the figure was 6.98. The same measure for “ATTCTACCACGCGATATACACACTTGTAGACATCTT [CACACA_site188]”: 7.29; for “TATAATGTATGTAGTGCACACCTCTATAATATATTA [CACACA_site8560]”: 10.3. With “AAATTTATGTGTGCCTGTACATATCAAAGATTTAAG [XGTACX_site8547]” the figure was 7.14; with “CGCAATTAAAATATGTGTCCTCATTTTATAACATTT [XGTACX_site5340]”, 6.98; with “TATTTACAAAAAAAATATAAAAAATATAAAATATAT [CACACA_negctrl_site575]”, 6.88. For “AATATTAAAATAAAAAGTACTTATTTATGTATGTTG [XGTACX_site2682]”, the “gcPBM binding intensity (ln)” value stood at 7.25.

In the case of “TGTATAATATTTGGTGCACACAAATTAACAACTGTT [CACACA_site9245]”, the “gcPBM binding intensity (ln)” value is 11.4. The same measure for “TTTATATAACAACAAAATGGAAATATATATGTATGT [TGCATGCA_negctrl_site98]”: 7.15; for “AAAAAAAAAAAAGAACGTACAAATTAATTTATAGAA [XGTACX_site5584]”: 6.93; for “CAGACATATTAAAAGAGTACATATATATATATATAT [XGTACX_site1158]”: 9.88. With “TGTTTATTACTCAGGTGTACTCAATTTTTTTTTTTT [XGTACX_site3470]” the figure was 7.18; with “TACACAAATATATACATACACACATATATACGCATA [CACACA_site394]”, 7.19. The same measure for “TAATATTGACTATATACACACATATATATATATATA [CACACA_site575]”: 9.62; for “GTACAAAAAAAAATAAAATACATATATATATATATA [GTGCAC_negctrl_site364]”: 9.59. Consider “AAAAAATTCATATATACACACACGCACATATATATA [CACACA_site4226]”, for which the “gcPBM binding intensity (ln)” value was 7.48.

As for “TATTATATATATGTTGACATATTTGTACACTCCACT [TGCATGCA_negctrl_site200]”, the “gcPBM binding intensity (ln)” value is 7.2. With “AAAATATTTCATATATGTACTTAAAAAAAAAAAAAA [XGTACX_site5399]” the figure was 7.11; with “GAATATATAAGATACACACACAAATTAAATATAAAA [CACACA_site2781]”, 7.07; with “AAAAAAAAAAAAAACACACACACACGCATAAATATA [CACACA_site6217]”, 7.42. With “CACTTTTCTGGAAAAATTCCCACATTTTTTTATTAA [GTGCAC_negctrl_site322]” the figure was 6.98; with “GATAAAGTACTTTATACACACAAATATTTATTTATA [CACACA_site7795]”, 7.04.

As to “TCTTCATATAAGAACACATGCAGATTTTTATTATTG [TGCATGCA_site682]”, the “gcPBM binding intensity (ln)” value turned out to be 6.94. For the sequence “TTATGTAAAAAAAAAAAAAAAAAAAAAAAAAAAAAA [CACACA_negctrl_site984]”, the “gcPBM binding intensity (ln)” value came out at 6.93. The same measure for “CATATAATATAATTATGTACATATATAATAATATAC [XGTACX_site5278]”: 7.11; for “AAAAAAAAAAAAAAACGTACACATATTATGTTATTT [XGTACX_site5264]”: 7.41; for “AAAAAAAAGTTGTATTGTACAAAAAAAAAAAAAAAA [XGTACX_site8334]”: 7.08.

On to “TCATAAAAACTAATACGTACTTAAAAATATGAACTT [XGTACX_site2939]”, for which the “gcPBM binding intensity (ln)” value amounted to 6.99. On to “AATCCCCACTTGTCAAGTACATATATCATGGATGAA [XGTACX_site3486]”, for which the “gcPBM binding intensity (ln)” value stood at 6.97. The same measure for “TATTTATAACAAAGGTTAAATTAAAACTAATCCACA [TGCATGCA_negctrl_site3]”: 6.73; for “GCCAAAATCTAATTTACACACTTATTAAATAATTAC [CACACA_site6251]”: 7.14.

Regarding “GACATAGTCATATACTGTACTTTATATTATTGTGTA [XGTACX_site6636]”, the “gcPBM binding intensity (ln)” value amounted to 7.11. Take “TTTTTTTTCATTGGTTGTACAATATTTATAATTCAC [XGTACX_site7036]”: the “gcPBM binding intensity (ln)” value came to 7.24.

In the case of “TACAGATATAAACACACACACATATATATATATATA [CACACA_site4846]”, the “gcPBM binding intensity (ln)” value came out at 9.51. With “TTTTTTTTTTTTTTTTGTACTTATAAAAAATTTTTT [XGTACX_site1249]” the figure was 6.99; with “ATGTAATATTTACAACGTACAAATTATAAACATATT [XGTACX_site603]”, 6.93; with “TCATATTGGCTGTTCTGTACTTATAAGTTTTAAAGA [XGTACX_site5593]”, 7.36. As to “TTTGTTAATATAAAAACACACAAAAATAACATAAAA [CACACA_site2619]”, the “gcPBM binding intensity (ln)” value came out at 7.08. With “AAGGGAAAAAAAAAAGCACACATACGTAAATATATA [CACACA_site7960]” the figure was 6.92; with “AAAAGATAAAATTATGCACACATACGAATAATTTTA [CACACA_site8497]”, 7.1; with “TATTTCACACAGTATATATATATATATATATATATA [TGCATGCA_negctrl_site118]”, 9.5. The same measure for “ATCTGACAAAAGTGTACACATATATATATATATATA [CACACA_site4814]”: 9.49; for “AAATGGGAAATTTCATGTACTCATTTACCCTTATTA [XGTACX_site4740]”: 6.51; for “CACATAATGAAAAATACACACATGTATATTTATAAA [CACACA_site2736]”: 6.75. Regarding GTTAATTTTTGTATAGTGCAAAAATATAATAGTATG, the “gcPBM binding intensity (ln)” value was determined as 8.85.
